Test results published in the supplement of paper PMC3334620.
Over roughly 33,000 sequences, “E-score (-0.5 to 0.5)” has its median near -0.035; the highest 2% begin near 0.34. Some of the results follow.

molecular target: T1, Mot3 (UniProt P54785); experiment: PBM E-score (8-mer binding enrichment) (E-score (-0.5 to 0.5)); higher = stronger / more preferred TF binding; most listed sequences are background and not binding sites; settings: protein concentration: 200 nM; construct: GST-full length
T1 sequence: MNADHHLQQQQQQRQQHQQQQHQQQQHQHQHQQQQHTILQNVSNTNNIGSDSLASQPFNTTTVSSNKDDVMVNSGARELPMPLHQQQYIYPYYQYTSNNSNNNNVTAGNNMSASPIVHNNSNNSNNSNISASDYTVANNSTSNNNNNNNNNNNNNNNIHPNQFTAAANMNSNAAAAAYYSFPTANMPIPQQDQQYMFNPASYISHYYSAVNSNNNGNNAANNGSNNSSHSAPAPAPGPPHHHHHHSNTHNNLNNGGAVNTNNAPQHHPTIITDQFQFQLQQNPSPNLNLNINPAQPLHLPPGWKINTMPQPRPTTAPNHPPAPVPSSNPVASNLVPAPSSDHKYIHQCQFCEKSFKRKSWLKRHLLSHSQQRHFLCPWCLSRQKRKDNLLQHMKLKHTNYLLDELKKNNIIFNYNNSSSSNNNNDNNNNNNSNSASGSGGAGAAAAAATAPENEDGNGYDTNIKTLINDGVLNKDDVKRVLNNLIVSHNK
Procedure: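 Universal 'all 10-mer' protein binding microarrays (Agilent AMADID 015681) probed with GST-tagged S. cerevisiae TFs (full-length or DBD) made by in vitro transcription/translation (PURExpress), about 100-200 nM. Bound TF was detected with fluorescent anti-GST. Each ungapped 8-mer (which stands for itself and its reverse complement) is scored by the PBM enrichment score (E-score), a modified Wilcoxon-Mann-Whitney statistic from -0.5 to +0.5, computed with the Universal PBM Analysis Suite. Scale: above 0.35 generally sequence-specific binding.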

Row | Sequence | PBM E-score
1 | CTGGGAAA | -0.155
2 | AGTCATAA | -0.206
3 | CAGAGCTG | -0.235
4 | AATCAGAC | -0.116
5 | CATCCACG | -0.0026
6 | CAATCGTG | 0.119
7 | CCGGGGCG | -0.387
8 | GCCATGCA | -0.135
9 | ATTCTTTA | 0.153
10 | GCCGTAAA | -0.0268
11 | CCACAACG | -0.00544
12 | TATCCGGA | -0.0397
13 | GGTAGTAA | 0.0182
14 | AAGGTCGA | -0.239
15 | GGTCGAAC | -0.0873
16 | CACCGTCA | -0.156
17 | AGATTGCG | -0.0144
18 | GTATCTCA | 0.0756
19 | GCGCGCTA | 0.0419
20 | CGCAAACA | 0.189
21 | CTTATAAA | 0.121
22 | ACGACCGC | -0.35
23 | CCCCTTGC | -0.152
24 | CAGTGGCC | -0.143
25 | CAAATAGC | -0.0997

Row | Sequence | PBM E-score
26 | CTCCTGTA | 0.105
27 | GTCTAGTA | -0.0337
28 | ATGGCTGC | -0.0779
29 | CCTAATAC | 0.0893
30 | ACGGAACG | 0.0378
31 | ACTAGTTA | 0.097
32 | TCAGAAGA | -0.257
33 | AGTCTTTC | -0.182
34 | CCTCGGGA | -0.328
35 | AACTACTC | -0.0654
36 | CACTCGGC | -0.104
37 | GCTTCTCA | -0.236
38 | CCGGTAGG | -0.0221
39 | AAGCGAAT | -0.022
40 | AACTTTAC | 0.182
41 | ATGCACCA | -0.108
42 | CGGGCAAC | -0.129
43 | GTACCACA | 0.0306
44 | CATAATAG | 0.137
45 | ACGCCTGG | -0.166
46 | GTTTTTTA | 0.0802
47 | CGACCCGC | -0.107
48 | CCATATCA | -0.256
49 | AGCTTCAT | -0.214
50 | AATCCCAT | -0.0717

Row | Sequence | PBM E-score
51 | CGAGATCG | -0.133
52 | GATCCCGC | -0.228
53 | AGACGAAA | -0.0417
54 | CCAGCGCC | -0.308
55 | TAATTGAA | 0.177
56 | CCGAGTCC | -0.248
57 | AAGATGCA | 0.0396
58 | CGCCTTTC | -0.036
59 | GGATACCC | -0.224
60 | CGCGTCCA | -0.216
61 | ATAAATGA | 0.0301
62 | CAATTGGC | -0.00766
63 | ACCGAACA | 0.139
64 | CCGGAGCA | -0.33
65 | GCTTGTAC | 0.242
66 | ATTCATAG | 0.013
67 | AGAGTTAG | -0.0306
68 | CTGTATAA | 0.0988
69 | AGCTTGCG | -0.139
70 | AATGTAGA | 0.221
71 | AGCTCTGC | -0.277
72 | TGTACAAA | 0.29
73 | TACCGCCA | -0.00906
74 | CTCAAAAG | 0.0588
75 | CGTATGCC | -0.126

Row | Sequence | PBM E-score
76 | GACATAGA | 0.0532
77 | GTATCCAC | -0.0662
78 | TTAGCAAA | 0.0611
79 | AAAGTGCG | -0.0132
80 | GCGCCAGA | -0.206
81 | TCCATTAA | 0.0521
82 | CTGAGAAG | -0.0561
83 | ATTGCCCA | 0.0652
84 | AGTCATCG | -0.131
85 | TCGTGTAA | 0.411
86 | ACTAACCC | 0.063
87 | GACGGAGA | -0.182
88 | AAATTAAT | 0.126
89 | GCCTTAGA | 0.00775
90 | CCTACACC | 0.136
91 | CATATGGA | -0.0698
92 | CGCCTATA | 0.134
93 | GAGCCGAC | -0.337
94 | TGACGCCA | 0.00608
95 | AAGGCCAA | 0.0261
96 | AACATCAT | 0.172
97 | AAGCCCAT | -0.253
98 | AGACCTAT | -0.0209
99 | CCTATTGA | 0.124
100 | CTTACTAA | 0.0438

Row | Sequence | PBM E-score
101 | GATGAGAC | -0.0653
102 | CGGGTCAG | -0.129
103 | CGCGAAAG | -0.0323
104 | CTGCCTTC | 0.2
105 | GCTCACCC | -0.265
106 | TACGATCA | -0.0275
107 | GCGCAAGA | -0.142
108 | ACAATCAT | 0.184
109 | ATGTCTTG | 0.0599
110 | AAGCGAAG | 0.0507
111 | AGTGAATG | -0.00718
112 | ATAGCGCA | -0.0413
113 | CGTGTATA | 0.4
114 | AACAAAAG | 0.152
115 | GAGCTAGA | -0.104
116 | CATCCAGC | -0.0348
117 | CCATGGCC | -0.145
118 | AGGCGTCC | 0.174
119 | GGCGGAAC | -0.0609
120 | CTCTGAGA | 0.0542
121 | GACTCTTA | -0.0822
122 | CCCTGAAC | 0.0649
123 | ACCGAGAA | -0.132
124 | CTCCTAAC | 0.107
125 | CTGTTTAC | 0.28

Row | Sequence | PBM E-score
126 | ACTCTGCC | 0.0189
127 | GCTATTTA | 0.024
128 | GAAGCATA | -0.181
129 | ATGACGGA | 0.0176
130 | AATCATCA | -0.117
131 | ACAGCAGG | 0.183
132 | CATGGAAA | 0.153
133 | GAGTGGGA | -0.22
134 | CCCATTAA | 0.143
135 | CCACGCGG | -0.17
136 | AAAAGACA | 0.0848
137 | ACGCACTG | 0.00111
138 | AACGTAGG | 0.143
139 | GACCGTCC | -0.367
140 | AACACGTA | 0.32
141 | GAGCGCTA | -0.2
142 | GCCAGGAA | 0.124
143 | AGTGACAT | 0.142
144 | CAAAGCTC | -0.185
145 | CCAAACAG | -0.0216
146 | GAGTAGAC | 0.00249
147 | CCAGTTAA | 0.169
148 | AATTCATA | -0.129
149 | CCATAGAC | -0.167
150 | GTTATCCA | 0.0204

Row | Sequence | PBM E-score
151 | TGGAACCA | -0.133
152 | CGGCAGAA | -0.235
153 | GGTCACGA | -0.176
154 | GCAGTGCC | 0.27
155 | ATATGTCA | 0.114
156 | CAAGGTGA | 0.0661
157 | ATAACCGA | -0.238
158 | GCCTATAC | 0.314
159 | AGATTCCT | 0.0382
160 | ACGAACCA | 0.0376
161 | CCATTTGC | -0.0613
162 | GCATCTGA | -0.26
163 | AAACGATT | -0.0409
164 | CAGCGAGG | -0.276
165 | CAAGTAAG | 0.205
166 | ATAGCTCG | -0.117
167 | CTACCAGA | 0.0177
168 | ACGACACA | 0.237
169 | ATAGCCAT | -0.107
170 | AGTTGGGA | -0.0558
171 | GAGTGAGA | -0.143
172 | ATTCGACC | -0.261
173 | CGCGTTCC | 0.14
174 | TGTAATAA | 0.375
175 | CTGATGAA | -0.0356

Row | Sequence | PBM E-score
176 | AACCTGTC | -0.0306
177 | CGCCGAAC | -0.182
178 | GTTTGCGA | 0.101
179 | ATGCGTAC | 0.205
180 | TCACAAGA | -0.0781
181 | CGCAGCCA | -0.271
182 | GGTAAACC | -0.211
183 | AATCCAAT | 0.00584
184 | GCCATAAA | -0.062
185 | GTACGTAA | 0.327
186 | AACAGAGT | 0.0995
187 | AATGCGAA | 0.0627
188 | GATGGATA | -0.2
189 | TAAGGCGA | -0.0665
190 | ACCTTACT | 0.0387
191 | CCCAAGAA | -0.0638
192 | ATAACTCG | -0.00659
193 | GTTATAAC | 0.117
194 | CGAGCTTC | -0.0561
195 | AGCGCGCA | 0.00343
196 | AATCCCTC | -0.24
197 | GCCTATGA | 0.232
198 | ACCATCTA | -0.076
199 | AGTTCAAG | 0.0525
200 | CCATACTC | -0.245

Row | Sequence | PBM E-score
201 | CATTTGCA | 0.0857
202 | AAGTTGAA | 0.016
203 | AGAACCTA | 0.161
204 | ATGTCTCG | -0.135
205 | ACCACCGG | -0.266
206 | CAGCAAGC | -0.332
207 | ACTCACTC | -0.0672
208 | CACCACTC | -0.283
209 | GTCACGCA | 0.0746
210 | ACTATAGA | -0.103
211 | CCATACAG | -0.0635
212 | ACCCCTGG | -0.397
213 | GAGCCCCA | -0.213
214 | AATTGAAC | 0.136
215 | AGCGGCAA | -0.145
216 | CCCGCCCC | -0.08
217 | ATCACTAA | -0.0234
218 | CCATGCGA | -0.0741
219 | AAGAATCC | 0.126
